Data taken from PubChem BioAssay AID504332 (National Center for Advancing Translational Sciences (NCATS), 2011).
Among all 350,000 compounds or so, about 31,000 (8.9%) were called active. The inconclusive results got no clear call from the source; some entries with a clear call stand among them for comparison. Calls follow the shape of the dose curve; as a rule, active = well fitted inhibition curve with a large enough effect; inconclusive = small, poorly fitted or top-dose-only effect; inactive = no such curve, though single readings can be large or run the other way. A potency beside an inconclusive call is a rough fit, not a confirmed value.

Biological target: Histone-lysine N-methyltransferase EHMT2 (Homo sapiens) (UniProt Q96KQ7)
Chain of UniProt Q96KQ7 (Q96KQ7 whole entry, looked up): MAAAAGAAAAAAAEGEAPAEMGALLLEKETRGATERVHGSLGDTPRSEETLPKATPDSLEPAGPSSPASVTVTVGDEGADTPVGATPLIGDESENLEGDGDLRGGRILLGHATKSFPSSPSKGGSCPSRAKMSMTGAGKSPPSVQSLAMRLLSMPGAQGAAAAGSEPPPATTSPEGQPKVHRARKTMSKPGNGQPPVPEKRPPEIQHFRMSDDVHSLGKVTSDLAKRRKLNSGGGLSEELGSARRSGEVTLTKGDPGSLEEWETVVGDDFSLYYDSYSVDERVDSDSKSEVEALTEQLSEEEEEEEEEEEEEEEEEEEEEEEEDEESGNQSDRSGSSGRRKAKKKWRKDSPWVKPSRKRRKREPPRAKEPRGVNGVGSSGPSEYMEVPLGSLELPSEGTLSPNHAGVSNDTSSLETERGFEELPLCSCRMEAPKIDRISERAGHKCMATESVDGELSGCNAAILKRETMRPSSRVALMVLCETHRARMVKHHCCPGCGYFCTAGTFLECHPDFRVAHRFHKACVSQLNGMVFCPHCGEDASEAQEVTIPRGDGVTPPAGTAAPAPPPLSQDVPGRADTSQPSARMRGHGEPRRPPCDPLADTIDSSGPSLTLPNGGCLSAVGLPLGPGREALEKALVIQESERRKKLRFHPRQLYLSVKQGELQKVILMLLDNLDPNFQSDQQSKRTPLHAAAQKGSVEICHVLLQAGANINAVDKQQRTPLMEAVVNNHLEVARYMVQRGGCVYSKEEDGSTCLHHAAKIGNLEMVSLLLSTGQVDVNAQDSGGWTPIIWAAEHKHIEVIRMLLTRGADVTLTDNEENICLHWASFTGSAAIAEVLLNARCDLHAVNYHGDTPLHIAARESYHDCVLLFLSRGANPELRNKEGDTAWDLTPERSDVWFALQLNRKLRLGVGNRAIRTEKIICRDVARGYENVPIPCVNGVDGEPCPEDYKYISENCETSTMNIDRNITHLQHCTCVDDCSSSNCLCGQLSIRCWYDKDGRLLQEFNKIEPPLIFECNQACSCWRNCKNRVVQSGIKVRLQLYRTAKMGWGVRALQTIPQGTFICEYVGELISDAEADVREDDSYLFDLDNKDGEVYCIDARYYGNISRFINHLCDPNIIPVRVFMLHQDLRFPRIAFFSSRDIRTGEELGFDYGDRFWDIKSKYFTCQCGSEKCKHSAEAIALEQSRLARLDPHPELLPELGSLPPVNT
Experiment: qHTS Assay for Inhibitors of Histone Lysine Methyltransferase G9a; also: nearly all actives have a fitted effect of over 75% in size
Conditions: G9a H3K9 monomethylation, AlphaScreen, 2 h; activity, negative = inhibition: at 59 µM (top of the series) unless noted
Procedure, shortened: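 Step 1: enzyme (final 20 nM) with compound, 15 min RT. Step 2: substrate peptide 500 nM and SAM 20 uM, 2 h RT. Step 3: anti-H3K9me1 antibody and AlphaScreen beads, 10 min, then plate read.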
% is scaled to controls: 0 for no effect and ±100 for the full control effect; potency is read from the fitted curve at half-maximal effect; tags tell the direction and shape of the fitted curve.

SMILES | Potency | activity, negative = inhibition
CCNc1nc2nc3ccc(C)cn3c(=O)c2cc1C(=O)NCC1CCCO1 (stereo unspecified) | inconclusive: 50.1 µM [inhibitor, partial curve, poor fit] | –
O=C(CNCC1CCCO1)N1CCCc2ccccc21 (stereo unspecified) | inconclusive: 3.98 µM [inhibitor, partial curve, poor fit] | –
CCc1ccc(-n2nc3cc(C)c(NC(=O)c4cccc5ccccc45)cc3n2)cc1 | inconclusive: 25.1 µM [inhibitor, partial curve, poor fit] | –
CC(=O)Nc1cc(NC(C)=O)cc(C(=O)OCC(=O)N(c2ccccc2)C2CCS(=O)(=O)C2)c1 (stereo unspecified) | – | inactive: -3.13% [at 12.7 µM]
C=C1CCN([C@@H](C)C(=O)NCc2ccc(Cl)cc2)S(=O)(=O)c2ccccc21 | – | inconclusive: -72.9% [inhibitor]
Cc1nc2ccccn2c1C(=O)NNC(=S)Nc1ccccc1 | inactive | –
c1ccc(CCCNc2ncccn2)cc1 | inactive | –
CCN(CC)CCSc1nc2ccccc2n1Cc1ccccc1 | inconclusive: 89.1 µM [inhibitor, single point] | –
Cc1ccc(-n2nnc(-c3cnc4ccccc4c3)n2)cc1 | inconclusive: 3.55 µM [inhibitor, single point] | –
Cc1nc(SCC(=O)NCC2CCCO2)[nH]c(=O)c1C (stereo unspecified) | inconclusive: 14.1 µM [inhibitor, partial curve, poor fit] | –
C=CCNC(=O)c1ccccc1NC(=O)C1COc2ccccc2O1 (stereo unspecified) | inconclusive: 31.6 µM [inhibitor, partial curve, poor fit] | –
CSc1nc2ccc(NC(=O)c3nn(C(C)C)c(=O)c4ccccc34)cc2s1 | inconclusive: 17.8 µM [inhibitor, single point] | –
CCN=c1scc(-c2ccc3c(c2)NC(=O)CO3)n1N=C1CCCC1 | inconclusive: 4.47 µM [inhibitor, full curve, poor fit] | –
S=C(c1ccc(-c2ccc(Br)cc2)o1)N1CCCCC1 | active: 79.4 µM | –
COc1ccc(Cl)cc1NC(=O)CN(C)C(=O)CCCc1c[nH]c2ccccc12 | inconclusive: 56.2 µM [inhibitor, partial curve, poor fit] | –
COc1cccc(OC)c1C(=O)NC(=S)Nc1ccc2c(c1)C(=O)N(C)C2=O | inconclusive: 8.91 µM [inhibitor, full curve, poor fit] | –
Clc1cccc(CN2CCc3c([nH]c4ccccc34)C2)c1Cl | active: 50.1 µM | –
Cc1ccc2c(c1)C(C)CC(C)(C)N2C(=O)CN1CCN(C)CC1 (stereo unspecified) | active: 12.6 µM | –
Cc1oc2c(cc(NS(=O)(=O)c3ccc(Cl)cc3)c3ccccc32)c1C(=O)O | – | inactive: -9.24% [at 0.501 µM]
CCOC(=O)c1ccc(NC(=O)Nc2c[nH]c(=O)[nH]c2=O)cc1 | inactive | –
CN(C)c1cncc(C(=O)O)c1 | inactive | –
Cc1ccc(CNC(=O)c2cc3c(s2)-c2ccccc2SC3)cc1 | inactive | –
CC(C)(C)C1=C(C#N)C(c2ccc3c(c2)OCO3)C(C#N)=C(N)O1 (stereo unspecified) | inconclusive: 39.8 µM [inhibitor, single point] | –

SMILES | Potency | activity, negative = inhibition
Oc1ccc(-c2cnns2)c(O)c1 | active: 7.08 µM | –
COc1cc(/C=N/NC(=O)C(C)Nc2n[nH]c(=O)[nH]c2=O)ccc1O (stereo unspecified) | inconclusive: 89.1 µM [inhibitor, single point] | –
Cc1ccc(C)c(-n2c(SCC(N)=O)nnc2-c2ccccn2)c1 | inconclusive: 89.1 µM [inhibitor, single point] | –
Cc1ccc(Nc2c([N+](=O)[O-])ccc3c2=NC2(CCCCC2)N=3)cc1 | active: 4.47 µM | –
COc1ccc(C(=O)NC(CCSC)C(=O)NCc2nnc3ccccn23)cc1 (stereo unspecified) | inconclusive: 39.8 µM [inhibitor, partial curve, poor fit] | –
CC(C)COc1ccc(C(=O)Nc2cccc(-c3nc4ccccc4[nH]3)c2)cc1 | inactive | –
Cc1ccc(NC(=O)COC(=O)C2CC2C)c(S(=O)(=O)N2CCCCC2)c1 (stereo unspecified) | inactive | –
c1ccc(CSc2nnc(-c3cccs3)n2Cc2ccco2)cc1 | inconclusive: 39.8 µM [inhibitor, single point] | –
CCc1ccc(OC(C)C(=O)N2CCC(c3nc4ccccc4s3)CC2)cc1 (stereo unspecified) | inconclusive: 10 µM [inhibitor, partial curve, poor fit] | –
CN(C)C(=O)c1ccc(-c2ccc3ncnc(N4CCNCC4)c3c2)cc1 | – | inactive: -4.84% [at 0.501 µM]
C=CCn1c(-c2sccc2C)n[nH]c1=S | active: 7.94 µM | –
CCOC(=O)c1cccc(NC(=O)CCc2c(C)nc3ncnn3c2C)c1 | inconclusive: 31.6 µM [inhibitor, partial curve, poor fit] | –
CCC(=O)C(C#N)(c1ccc(OC)c(OC)c1)C(C)C (stereo unspecified) | – | inactive: -7.12% [at 0.501 µM]
CCc1cc(-c2n[nH]c(=S)n2-c2cccc(C)c2)cs1 | inconclusive: 1.41 µM [inhibitor, full curve, poor fit] | –
COc1ccc(CCNC(=O)c2cc(C)oc2C)cc1 | inactive | –
COc1ccc(OC)c(N(C)S(=O)(=O)c2cc3c(cc2C)NC(=O)CO3)c1 | inconclusive: 2.82 µM [inhibitor, partial curve, poor fit] | –
Cn1cccc1C(=O)NC(=O)COC(=O)CC12CC3CC(CC(Br)(C3)C1)C2 | inconclusive: 3.55 µM [inhibitor, single point] | –
O=C(NCC(=O)N(c1ccccc1F)C(C(=O)NC1CCCC1)c1cccnc1)c1ccco1 (stereo unspecified) | inactive | –
CCc1ccc(NC(=O)c2cnc3n(c2=O)CCS3)cc1 | inconclusive: 89.1 µM [inhibitor, single point] | –
Cc1ccc(C)n1Cc1ccc(C(=O)O)cc1 | active: 8.91 µM | –
CN(C)S(=O)(=O)c1ccc(NC(=O)COC(=O)Cn2[nH]c(=O)c3ccccc3c2=O)cc1 | inactive | –
COc1ccc(NC(=O)CSc2nc3ccccc3c(=O)n2CCNC(C)=O)c(OC)c1 | inactive | –
Cn1c(=O)c2c(nc(N3CCCCCC3)n2CC(O)COc2ccccc2)n(C)c1=O (stereo unspecified) | – | inactive: 10.1% [at 0.0925 µM]
